# The supplement of paper PMC11417369
# This is one part of the list.
# Tested on: PF3D7_0420300 AP2 domain 1 (GST-tagged)
# Assay: gcPBM binding intensity (ln(normalized median fluorescence intensity)); higher = stronger DNA binding
# How it was run: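 Binding of GST-tagged P. falciparum DNA-binding domains, expressed in E. coli and used at about 25 μg on average, was carried out for 1 h in 1× PBS containing 1% milk, 0.2 mg/ml BSA, 0.5% salmon testes DNA and 0.03% Triton X-100. The target was an Agilent 4 × 180k array of primer-extended double-stranded 36-bp intergenic genomic probes plus negative controls, read with Alexa488 anti-GST antibody at 488 nm. Binding intensity is the highest Masliner-normalised natural-log median intensity across replicate spots of either probe orientation.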
row,Sequence,gcPBM binding intensity (ln)
1,ATATATTTGTATAATAGTACGTACAGGCAAAATATA [XGTACX_site7396],9.42
2,TACATTTAAAAAAAAACACACATATATATATATATA [CACACA_site2535],8.99
3,TTTCTTTTTATATTCACACATAAATATATATATATA [CACACA_site6053],9.19
4,AAAAAAAAAAAACACACACACACATACCCATACATA [CACACA_site5575],10.1
5,ATATAAAAATATAATACACACATAAAATATATTATA [CACACA_site969],9.71
6,TATATAAGGAAATATTGTACTTTTATATTTATATTA [XGTACX_site3814],9.13
7,AAAAAAAAAAAAAAAACACACAGAAATATATATATA [CACACA_site4611],9.55
8,AAAGAAGGGAAACACACACACACACCCACAAAAAAA [CACACA_site3766],9.98
9,AATAAAAAAAAAATAAATTTAATAATAATAATAAAA [CACACA_negctrl_site569],9.05
10,TGTATATATATTTATGCATGCTGTGTGTATTCTTTT [TGCATGCA_site74],9.78
11,TTTATATATTTTAGGAGTACATTAAATTATACCTTA [XGTACX_site5600],9.01
12,TATAACAAAAAAAAATAAAAAATAAAACTATATATA [CACACA_negctrl_site504],9.28
13,TTTTTTTTTTATTCTTCACACATTTCCAATAAAAAA [CACACA_site5601],9.16
14,ACCTAAAATAACTACACACACATAAAAAAAAAAAAA [CACACA_site2529],9.9
15,GTTATTATATATATGTGTACTTAAAAATTTTATGTC [XGTACX_site6084],9.33
16,TTAAAAAACTATAATACACACCAAAAATATGCACAT [CACACA_site7079],9.85
17,AATATAAATATAAATTGTACTTAAAAATTTCACGCA [XGTACX_site5234],9.12
18,TCCTTTTGAACCCTTTTTCTCACAAGACCTTTATAT [TGCATGCA_negctrl_site413],9.11
19,TTTCGTTGTGTATTTTGTACATATTTTTAATTATAT [XGTACX_site6687],9.48
20,TTTCTTTTTTAAATTAAAATTTTTTTTTTTTTCGGT [TGCATGCA_negctrl_site52],8.81
21,AAGAAAAAGATGCGCATACACACAGATGAATAACAA [CACACA_site1627],9.85
22,TTATTTCAAAGTTGTTGTACAAAAATATATTTATAA [XGTACX_site5226],8.96

row,Sequence,gcPBM binding intensity (ln)
1,AATTAAAAAGTTTTTAATGTTTTTAATTTTTTCCAC [XGTACX_negctrl_site423],8.9
2,AAAAAAATAATGTACACACACATATATGTTTATATA [CACACA_site6234],9.65
3,TATATAAATTATGTGAGTACATAATTTAGAAGGAAC [XGTACX_site2807],9.43
4,AAAGGTGTATTTAATACACACGTGTCATTAAAATTG [CACACA_site4508],9.24
5,ATTAATATTTAGACTTGTACATATATAATATATGTC [XGTACX_site3766],9.2
6,ATAAAATATCAATACCGTACACAAGCAGGTAAAATA [XGTACX_site3719],9.66
7,CTTTTTTGTAATAACACACACACAAACAGAAAAAAT [CACACA_site2075],10.1
8,TTATTATTAGAAAAAAGTACACATATAAAATGTTAC [XGTACX_site6426],9.14
9,GGATACATATGTAAAAGTACACATGAATATATACAT [XGTACX_site6469],9.36
10,GTAAAATTAAAAATAACACACAAAAAAAAAAAAAAA [CACACA_site800],9.38
11,AAAAAAAAAAGAAAAAGTACATACATACATATATAT [XGTACX_site6405],9.35
12,TTCTTTTTTATTTATACATGCAATAAAAAATTGATT [TGCATGCA_site730],9.14
13,TTTTTTTAAAACAAAAAAAAAAAAAAAAAAAAAAAA [TGCATGCA_negctrl_site418],8.14
14,AATAAACATTATTTTCGTATTCCAATTCTTTTTTTT [XGTACX_negctrl_site374],9.4
15,TTGATAAAATCACTGGTGCATGTAGATATATAATAT,9.3
16,AAGAGAGAGAAATATGCACACATAAGGGAAATAAAT [CACACA_site8300],9.6
17,TATATATGTATGTATGTACACACAAAAAATGGAATA [CACACA_site9235],9.64
18,AAAATTTTTTTTGGCGCACACTAATAATAAAATATA [CACACA_site470],9.04
19,CTTTTTAATGAATACACACACACACCGATATATATA [CACACA_site5296],10.1
20,GAATAATATGGACATACACACATATACATACCTATA [CACACA_site7075],9.79
21,AAATATTATTGACGATGTACTTCTATTCATAAGTAT [XGTACX_site3964],9.14
22,TAAAACTTATACAAATGTACAAATATATATATATAT [XGTACX_site4661],9.24

row,Sequence,gcPBM binding intensity (ln)
1,AGACGATAAATCATTCATTCATTTACCATCCAAAAA [CACACA_negctrl_site802],9.02
2,TTTTAATTAGTACAAACACACATATACAGACAAAAA [CACACA_site2563],9.71
3,TAATATAGAAAATGCATACACACTTTATATATATAT [CACACA_site911],9.39
4,TACTATTATTATTGCACACTTATTATCCCTCGGATA [CACACA_site162],9.31
5,TGATCATAGAAACACACACACAAAAAAAAAAAAAAA [CACACA_site4008],9.56
6,AATATATATTAATACACACACACATATATATATATA [CACACA_site3786],9.98
7,TATAATAATACTTATTGTACTATTAGTTTAATTCAT [XGTACX_site6638],9.07
8,AATAATTTAATACATACACACGTATATCTTTTTTTT [CACACA_site8632],9.53
9,TATATATATAACATATGTACATATATTTATAAATAC [XGTACX_site5484],9.19
10,TATATAAATATACACCCACACACATATATATATATA [CACACA_site9247],9.63
11,ATCGTAGTATAATATGAACACACACCCACCCACAAA [CACACA_site8616],10.2
12,TATAAAAAAAAATGTGGTACATATTTCCATTTTCCA [XGTACX_site4571],9.01
13,TAAATCCGCACGCACACACACATATTAATAAAAAAA [CACACA_site7800],9.68
14,TTATTTTTATTATAAATTATAAAATATAAATAAATA [GTGCAC_negctrl_site616],8.65
15,GAAACTATGTAATGCACACCAAAATAAAATTATTAA [CACACA_site1904],9.27
16,TCTTCTTAACCAACTATGAAAAGGAAAAATATAACA [GTGCAC_negctrl_site565],9.06
17,ATATATTATATATATAGTACGTATATAAATTTAATT [XGTACX_site5041],9.21
18,CATGAATTTTTTTAATGTACATTCACATCATAAAAA [XGTACX_site7475],8.89
19,ATTATAAAAAAGAAACGTACATATTTATTGTTTTTT [XGTACX_site2161],9.32
20,TAAATAAATTTATGTACACACACAAATAAATACATA [CACACA_site5107],9.81
21,AAAAAAAAGAAAAACACACACATATTTATTTATAAC [CACACA_site6600],9.93
22,TATATATTAAATTATAGTACACATTATATATAATTA [XGTACX_site4841],9.18

row,Sequence,gcPBM binding intensity (ln)
1,ATAATATATGTATGTATGCACTTTTATTATTTTTTT,9.54
2,TATATATATATATATAGTACACATATCACATAAATG [XGTACX_site6379],9.27
3,ATAATATATATATTTTGTACACATGAAAAGGAGGAT [XGTACX_site5034],9.52
4,ATATATATATATGTACACATATATGTGTTTGTTTTT [GTGCAC_negctrl_site5],9.7
5,CTATTACAAAGAAATTGTACATATATATATAAAAAC [XGTACX_site8800],9.31
6,ATCTTTCAATAATTCACACATATATATATATATATA [CACACA_site4598],9.37
7,AGCCACAATACGGAAACACACAAGTTATTTTATCAT [CACACA_site2724],9.48
8,AATGAAGACTTTTTTACACACTTCATATCTTATAGA [CACACA_site7046],9.39
9,TTTTAACGTAATTCAAATGAGCAGAATTTTTTAAAA [CACACA_negctrl_site1800],8.83
10,TTTTTATGAATTCTTTTGTTAATAATAATATGTTGT [TGCATGCA_negctrl_site198],9.19
11,AAATTTTTTCCGATTTGTACTTATATTTCTTTATTA [XGTACX_site1762],9.52
12,AATATTTTTAATTAATGTACATATTTATTATATAAA [XGTACX_site5112],8.92
13,AAATAAGAGCGTAGCACACACGCATTTTATAAATGG [CACACA_site4571],9.25
14,TCATATAAGTTTAGTAGTACTAAAAGTTAGAGAGAA [XGTACX_site3430],9.24
15,TGATTATTATAATTTAGTACATAATATTTTATATAA [XGTACX_site6125],8.94
16,CAAGGAACCAGACACACACACATAAATGTATATATA [CACACA_site752],9.91
17,ATATATGGAAAGAGTAGTACTATTATAGGGGTGTTA [XGTACX_site6785],9.55
18,AAAACAAAAGAATTCACACATATATATATATATATA [CACACA_site4777],9.41
19,AAAATTAAACATACATCACACATGCATTATATTATG [CACACA_site5517],9.38
20,TTAAACGTACATAATACACACACATGTAGACATATA [CACACA_site8635],9.79
21,AAAATTAACGAGTGCACACATATTTAGATAAAATAC [CACACA_site2936],9.61
22,ATAAAGTCTATATTATGTACATATAATATAAATATT [XGTACX_site6703],9.1
